These results are taken from patent US20210147571A1, “MONOCLONAL ANTIBODY TARGETING HUMAN TUMOR STEM CELLS AND USE THEREOF” (Suzhou Bojuhua Biomedical Technology Co. Ltd, priority 2017, published 2021).

Test [1] has as its target target antigen of Hetumomab (human). As to the kind of experiment: flow immunofluorescence; SNU-5 parental cells.
Test [2] has the same target. As to the kind of experiment: flow immunofluorescence; BEL7402 V13 sphere cells.
Test [3] has the same target. As to the kind of experiment: flow immunofluorescence; MHCC-97L parental cells.
The target is the same in test [4]. As to the kind of experiment: flow immunofluorescence; MHCC-97L sphere cells.
The target is the same in test [5]. As to the kind of experiment: flow immunofluorescence; BEL7402 V13 parental cells.
The target is the same in test [6]. As to the kind of experiment: flow immunofluorescence; SNU-5 sphere cells.
Test [7] has the same target. As to the kind of experiment: flow immunofluorescence; BGC-823 sphere cells.
Test [8] has the same target. As to the kind of experiment: flow immunofluorescence; BGC-823 parental cells.

B1: humanized antibody Hetuzumab H5L6 (antibody, human IgG1, kappa)
heavy: QVTLKESGPTLVKPTQTLTLTCTFSGFSLSTSGMGVSWIRQPPGKALEWLAHIYWDDDKRYNPSLKSRLTISKDTSKNQVVLTMTNMDPVDTATYYCARSFYYYAANSFAYWGQGTLVTVSS[human IgG1 constant region left out here]
light: DIVMTQTPFSNPVTLGTSASISCRSSKSLLHSNGITYLYWFLQKPGQSPQLLIYQMSNLASGVPDRFSGSGSGTDFTLKISRVEAEDVGVYYCAQNLELYTFGQGTKVEIKRTVAAPSVFIFPPSDEQLKSGTASVVCLLNNFYPREAKVQWKVDNALQSGNSQESVTEQDSKDSTYSLSSTLTLSKADYEKHKVYACEVTHQGLSSPVTKSFNRGEC
Consider B1, for which the positive rate (percent positive cells) was determined as 3.68% in test [1]; 12% in test [2]; 7.35% in test [3]; 16.2% in test [4]; 7.12% in test [5]; 6.2% in test [6]. The positive rate (percent positive cells) in test [7] is 6.26%; in test [8], 3.84%.

B2: humanized antibody Hetuzumab H5L12 (antibody, human IgG1, kappa)
heavy: QVTLKESGPTLVKPTQTLTLTCTFSGFSLSTSGMGVSWIRQPPGKALEWLAHIYWDDDKRYNPSLKSRLTISKDTSKNQVVLTMTNMDPVDTATYYCARSFYYYAANSFAYWGQGTLVTVSS[human IgG1 constant region left out here]
light: DIVMTQTPFSLPVTLGQPASISCRSSKSLLHSNGITYLYWFLQKPGQSPQLLIYQMSNLASGVPDRFSGSGSGTDFTLKISRVEAEDVGVYYCAQNLELYTFGQGTKVEIKRTVAAPSVFIFPPSDEQLKSGTASVVCLLNNFYPREAKVQWKVDNALQSGNSQESVTEQDSKDSTYSLSSTLTLSKADYEKHKVYACEVTHQGLSSPVTKSFNRGEC
On to B2, for which the positive rate (percent positive cells) amounted to 2.63% in test [1]; 8.39% in test [2]; 5.25% in test [3]; 10.6% in test [4]; 5.38% in test [5]; 4.1% in test [6]. Besides, the positive rate (percent positive cells) was 4.44% in test [7] and 2.9% in test [8].

B3: humanized antibody Hetuzumab H5L11 (antibody, human IgG1, kappa)
heavy: QVTLKESGPTLVKPTQTLTLTCTFSGFSLSTSGMGVSWIRQPPGKALEWLAHIYWDDDKRYNPSLKSRLTISKDTSKNQVVLTMTNMDPVDTATYYCARSFYYYAANSFAYWGQGTLVTVSS[human IgG1 constant region left out here]
light: DIVMTQTPFSNPVTLGQPASISCRSSKSLLHSNGITYLYWFLQKPGQSPQLLIYQMSNLASGVPDRFSGSGSGTDFTLKISRVEAEDVGVYYCAQNLELYTFGQGTKVEIKRTVAAPSVFIFPPSDEQLKSGTASVVCLLNNFYPREAKVQWKVDNALQSGNSQESVTEQDSKDSTYSLSSTLTLSKADYEKHKVYACEVTHQGLSSPVTKSFNRGEC
In the case of B3, the positive rate (percent positive cells) amounted to 3.59% in test [1]; 11.3% in test [2]; 6.85% in test [3]; 14.7% in test [4]; 6.94% in test [5]; 5.92% in test [6]. Besides, the positive rate (percent positive cells) in test [7] is 5.42%; in test [8] it was 3.39%.
